{"source": "PubChem BioAssay AID488969", "about": "(Vanderbilt High Throughput Screening Facility, 2010)", "note": "The full ranking holds about 110,000 compounds; the median of “z-score” is about -0.1, and the highest 2% start at about 2. This is one part of the list."}
{"target": "Metabotropic glutamate receptor 8 (Rattus norvegicus) (UniProt P70579)", "sequence (P70579 whole entry, looked up)": "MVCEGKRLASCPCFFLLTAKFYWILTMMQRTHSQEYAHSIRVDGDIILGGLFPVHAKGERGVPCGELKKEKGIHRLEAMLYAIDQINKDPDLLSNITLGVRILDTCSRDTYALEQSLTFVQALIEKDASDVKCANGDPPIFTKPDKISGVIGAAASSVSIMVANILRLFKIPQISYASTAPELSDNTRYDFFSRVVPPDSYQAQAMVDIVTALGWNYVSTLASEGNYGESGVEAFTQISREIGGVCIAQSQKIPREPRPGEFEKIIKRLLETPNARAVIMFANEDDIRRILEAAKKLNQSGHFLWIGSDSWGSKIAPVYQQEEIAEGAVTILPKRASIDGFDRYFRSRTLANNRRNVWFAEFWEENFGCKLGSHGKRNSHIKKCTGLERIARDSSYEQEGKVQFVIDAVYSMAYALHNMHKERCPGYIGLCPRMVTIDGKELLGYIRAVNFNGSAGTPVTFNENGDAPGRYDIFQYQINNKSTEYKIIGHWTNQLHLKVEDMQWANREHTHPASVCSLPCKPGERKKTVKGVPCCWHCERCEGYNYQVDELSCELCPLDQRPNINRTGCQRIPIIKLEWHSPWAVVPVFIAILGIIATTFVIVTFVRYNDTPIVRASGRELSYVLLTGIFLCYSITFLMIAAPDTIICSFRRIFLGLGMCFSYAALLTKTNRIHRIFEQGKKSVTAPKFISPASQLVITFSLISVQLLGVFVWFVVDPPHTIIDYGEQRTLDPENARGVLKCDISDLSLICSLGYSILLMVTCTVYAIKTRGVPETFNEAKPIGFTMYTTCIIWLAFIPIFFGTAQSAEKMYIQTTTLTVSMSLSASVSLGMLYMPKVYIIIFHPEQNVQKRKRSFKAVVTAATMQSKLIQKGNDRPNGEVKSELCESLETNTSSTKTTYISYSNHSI", "assay": "rat mGluR8 modulators via GIRK flux, primary screen, cell-based, thallium flux, HTS (AID 488969)", "conditions": "HEK293 rat mGluR8, GIRK (G protein-gated inwardly rectifying potassium channel) thallium flux, FluoZin2; at 10 µM; stronger effect = higher value; submaximal glutamate (EC20) added with thallium"}
{"smiles": "CCc1nnc(NC(=O)CSc2nc(C)c3c(c2C#N)CCCC3)s1", "z-score": -1.22}
{"smiles": "COc1ccc(C(=O)NCCSCc2ccc(C)cc2)cc1", "z-score": -0.627}
{"smiles": "COc1ccc(N2CCN(C(=O)CSc3nnc4nc(C)cc(C)n34)CC2)cc1", "z-score": 0.0305}
{"smiles": "COc1cccc(C(=O)NCC(c2cccnc2)N2CCN(c3ccccc3OC)CC2)c1", "note": "(stereo unspecified)", "z-score": -1.75}
{"smiles": "CCOC(=O)n1c(=O)oc2cc(S(=O)(=O)N3CCCCC3)ccc21", "z-score": -0.387}
{"smiles": "Cc1ccc(S(=O)(=O)Nc2ccc(N3CCOCC3)cc2)cc1", "z-score": 0.255}
{"smiles": "NC(=O)C1CCN(c2oc(-c3ccccc3F)nc2S(=O)(=O)c2ccc(Cl)cc2)CC1", "z-score": -0.139}
{"smiles": "O=CNC(Cc1ccccc1)C(=O)O", "note": "(stereo unspecified)", "z-score": 1.94}
{"smiles": "Cc1noc(C)c1S(=O)(=O)N1CCN(C(c2ccccc2)c2ccc(Cl)cc2)CC1", "note": "(stereo unspecified)", "z-score": 0.28}
{"smiles": "Nc1nc(OCC(F)(F)F)cc(Oc2ccccc2F)n1", "z-score": -0.33}
{"smiles": "COc1ccc(-c2nnn(CC(=O)NCc3cccs3)n2)cc1OC", "z-score": 0.25}
{"smiles": "Cc1ccccc1CSCC(=O)NC1CCCC1", "z-score": -0.358}
{"smiles": "CN1C(=O)C2(c3ccccc31)N(C)CC(c1ccccn1)C21SC(=S)N(Cc2ccco2)C1=O", "note": "(stereo unspecified)", "z-score": 0.441}
{"smiles": "CS(=O)(=O)N1CCC(C(=O)NCc2ccco2)CC1", "z-score": 0.432}
{"smiles": "N#CCCn1ncc2ccccc21", "z-score": 0.255}
{"smiles": "CSc1nc(NCC(C)C)nc(N2CCOCC2)n1", "z-score": -0.452}
{"smiles": "O=C1Nc2ccccc2Nc2ncccc21", "z-score": -0.823}
{"smiles": "CCN(CC)c1ccc(C=C2C(=O)OC3(CCCC3)OC2=O)cc1", "z-score": -0.152}
{"smiles": "COc1ccc(NC(C#N)c2ccc(OC)cc2)cc1", "note": "(stereo unspecified)", "z-score": -0.113}
{"smiles": "O=C1Oc2ccccc2C2(O)C3CCCCCC3C12", "note": "(stereo unspecified)", "z-score": -0.124}
{"smiles": "CCOc1cc(C=O)ccc1OS(=O)(=O)c1ccc(NC(C)=O)cc1", "z-score": -0.721}
{"smiles": "CCOc1ccc(-n2c(N)c(-c3nc4ccccc4[nH]3)sc2=S)cc1", "z-score": 0.509}
{"smiles": "Cc1cc(Br)c2nc3c(c(C(=O)O)c2c1)CCCCC3", "z-score": -0.438}
{"smiles": "O=C(c1ccco1)N1CCN(C2CC(=O)N(c3ccc4c(c3)OCO4)C2=O)CC1", "note": "(stereo unspecified)", "z-score": 0.168}
{"smiles": "O=S(=O)(c1ccc(F)cc1)c1nc(-c2ccco2)oc1Nc1ccccc1", "z-score": 0.572}
{"smiles": "CCN(CC)S(=O)(=O)c1cccc(C(=O)Nc2cc3oc4ccccc4c3cc2OC)c1", "z-score": -0.12}
{"smiles": "CCNc1nc(NC(C)C)nc(NS(=O)(=O)c2ccc(Cl)cc2)n1", "z-score": 0.57}
{"smiles": "CCCC12CN3CCN(CC(C3)/C1=N\\NC(=O)c1ccc(C(C)(C)C)cc1)C2", "z-score": -0.345}
{"smiles": "O=c1c2ccccc2cnn1Cc1n[nH]c(=S)n1-c1ccc(Cl)cc1", "z-score": -0.112}
{"smiles": "COC(=O)C1=C(C)N(c2ccc(C)c(C)c2)/C(=C/c2cccs2)C1=O", "z-score": -0.788}
{"smiles": "NS(=O)(=O)c1ccc(CCNc2ncnc3c2c(-c2ccccc2)cn3-c2ccc(F)cc2)cc1", "z-score": -0.435}
{"smiles": "Cc1cccc(C(=O)Oc2ccccc2C2C[C@]3(C)CC(=O)NC3N2C(=O)c2cccc(C)c2)c1", "note": "(stereo partly specified)", "z-score": -0.253}
{"smiles": "COc1cc(-c2nnc(-c3ccc(S(=O)(=O)c4ccccc4)cc3)o2)cc(OC)c1OC", "z-score": -0.312}
{"smiles": "CC1(O)N(Cc2ccccc2)C(=O)OC12CCCCC2", "note": "(stereo unspecified)", "z-score": -0.284}
{"smiles": "O=C(Oc1ccccc1N1C(=O)C2CCCCC2C1=O)c1ccccc1", "note": "(stereo unspecified)", "z-score": -0.131}
{"smiles": "CSc1nnc(-c2cccc(C)c2)n1N", "z-score": -0.0746}
{"smiles": "CCOC(=O)CSc1nnc(CCc2nc3ccccc3[nH]2)n1C", "z-score": -0.105}
{"smiles": "O=C(O)c1ccc2nc(-c3ccccc3)c(-c3ccccc3)nc2c1", "z-score": -0.169}
{"smiles": "CCOC(=O)c1cccc(-n2c(C)nc3ccccc3c2=O)c1", "z-score": -0.552}
{"smiles": "Cc1ccc2cccc(Oc3ccc([N+](=O)[O-])cc3[N+](=O)[O-])c2n1", "z-score": -0.181}
{"smiles": "Cc1cc(C)n(-c2nnc(NC34CC5CC(CC(C5)C3)C4)nn2)n1", "z-score": 0.433}
{"smiles": "Cc1cc(NCCCN2CCOCC2)n2ncc(-c3ccc(Cl)cc3)c2n1", "z-score": 0.369}
{"smiles": "CCOC(=O)C(NC(=O)CC)(Nc1ccc(S(=O)(=O)Nc2onc(C)c2C)cc1)C(F)(F)F", "note": "(stereo unspecified)", "z-score": 0.0428}
{"smiles": "C/C(=N\\NC(=O)c1nn(C)cc1Br)c1cccc(NC(=O)C(C)(C)C)c1", "z-score": -0.156}
{"smiles": "CC(C)OC(=O)CSc1nnc(-c2cccnc2)n1Cc1ccccc1", "z-score": -0.0914}
{"smiles": "CCOC(=O)c1cc(-c2ccc(OC)cc2)nc2c1c(C)nn2CCC#N", "z-score": -0.93}
{"smiles": "COc1ccc(-c2nnc3n(CCc4ccccc4)c(=O)c4ccccc4n23)cc1OC", "z-score": 0.848}
{"smiles": "COc1ccc(Nc2nc(C)nc3c2nnn3Cc2ccccc2)cc1OC", "z-score": -1.28}
{"smiles": "Cc1ccc(NC(=O)C2CC(=O)N/C(=N/N=C/c3ccco3)S2)cc1C", "note": "(stereo unspecified)", "z-score": -0.259}
{"smiles": "O=C(C/C=N/OCc1c(Cl)cccc1Cl)c1ccccc1", "z-score": -0.2}
{"smiles": "Clc1ccc(OCCCc2nc(-c3ccncc3)no2)c(Cl)c1", "z-score": 0.544}
{"smiles": "CC(=O)N(C)C1(c2nnnn2CCOC(=O)Nc2ccc(Cl)cc2)CCCCC1", "z-score": -0.293}
{"smiles": "OC1CN=C2CCCc3c2n(c2ccc(Cl)cc32)C1", "note": "(stereo unspecified)", "z-score": -0.735}
{"smiles": "CN1CCCCc2c1nc1c(c2N)CCCC1", "z-score": 0.627}
{"smiles": "CCOC(=O)c1c(NC(=O)c2cc(CC(C)C)on2)sc(C(C)=O)c1C", "z-score": 0.0495}
{"smiles": "CC1CN(C(=S)NC(=O)c2ccco2)CC(C)O1", "note": "(stereo unspecified)", "z-score": -0.326}
